The values that follow come from a collection of fitness landscapes (doi:10.1126/science.1257360).

The list shows a part of the results.

The chains are these.
B1: PhoQ; a variant is named by its letters at X, in order, P23837 (parent)
chain: MKKLLRLFFPLSLRVRFLLATAAVVLVLSLAYGMVALIGYSVSFDKTTFRLLRGESNLFYTLAKWENNKLHVELPENIDKQSPTMTLIYDENGQLLWAQRDVPWLMKMIQPDWLKSNGFHEIEADVNDTSLLLSGDHSIQQQLQEVREDDDDAEMTHSVAVNVYPATSRMPKLTIVVVDTIPVELKSSYMVWSWFIYVLSANLLLVIPLLWVAAWWSLRPIEALAKEVRELEEHNRELLNPATTRELTSLVRNLNRLLKSERERYDKYRTTLTDLTHSLKTPLXXLQXXLRSLRSEKMSVSDAEPVMLEQISRISQQIGYYLHRASMRGGTLLSRELHPVAPLLDNLTSALNKVYQRKGVNISLDISPEISFVGEQNDFVEVMGNVLDNACKYCLEFVEISARQTDEHLYIVVEDDGPGIPLSKREVIFDRGQRVDTLRPGQGVGLAVAREITEQYEGKIVAGESMLGGARMEVIFGRQHSAPKDE

In this assay the parent is B1. Kind of assay: enrichment ratio after two sorts for PhoP signalling (ratio (wild type AVST 3.29)); higher = more functional. Conditions: with PhoP (E. coli).
On to CLGF, for which the enrichment ratio was ≤ 0.25.

Take VAQK: the enrichment ratio is ≤ 0.25.

Take GWEP: the enrichment ratio was ≤ 0.25.

With TALE, the enrichment ratio was ≤ 0.25.

Consider YAMK, for which the enrichment ratio was ≤ 0.25.

Regarding TWLC, the enrichment ratio was ≤ 0.25.

With RTQH, the enrichment ratio is ≤ 0.25.

In the case of ETRR, the enrichment ratio was ≤ 0.25.

With QEFN, the enrichment ratio stood at 3.01.

In the case of PNWS, the enrichment ratio was ≤ 0.25.

Turning to ETIH, the enrichment ratio is ≤ 0.25.

On to SCDT, for which the enrichment ratio is ≤ 0.25.

In the case of AGSS, the enrichment ratio came to 11.2.

On to TVAP, for which the enrichment ratio was ≤ 0.25.

Take MCYC: the enrichment ratio was ≤ 0.25.

Take PPKV: the enrichment ratio is ≤ 0.25.

Regarding WDGP, the enrichment ratio is ≤ 0.25.

For the variant YIKN, the enrichment ratio was ≤ 0.25.

As to RFGH, the enrichment ratio was ≤ 0.25.

Regarding EALW, the enrichment ratio was ≤ 0.25.

As to WMAC, the enrichment ratio is ≤ 0.25.

TAFP: the enrichment ratio came out at 0.47.

On to GCSW, for which the enrichment ratio was ≤ 0.25.

On to ACEL, for which the enrichment ratio was ≤ 0.25.

As to FLIR, the enrichment ratio was ≤ 0.25.

For the variant KGMR, the enrichment ratio was ≤ 0.25.

In the case of TFQK, the enrichment ratio is ≤ 0.25.

For the variant KVML, the enrichment ratio was ≤ 0.25.

TAWL: the enrichment ratio is 6.96.

On to VKSQ, for which the enrichment ratio is ≤ 0.25.

With DILV, the enrichment ratio is ≤ 0.25.

KSFT: the enrichment ratio was ≤ 0.25.

For the variant LGVD, the enrichment ratio was ≤ 0.25.

For DRIQ, the enrichment ratio is ≤ 0.25.

On to WMRC, for which the enrichment ratio was ≤ 0.25.

For IMHA, the enrichment ratio is ≤ 0.25.

With ELKE, the enrichment ratio is ≤ 0.25.

Turning to LGIY, the enrichment ratio was ≤ 0.25.

As for ERCR, the enrichment ratio was ≤ 0.25.

With PQGV, the enrichment ratio is ≤ 0.25.

QSIS: the enrichment ratio was ≤ 0.25.

On to AMAS, for which the enrichment ratio was determined as 10.9.

PINQ: the enrichment ratio is ≤ 0.25.

In the case of KEYN, the enrichment ratio was ≤ 0.25.

Consider DIWY, for which the enrichment ratio is ≤ 0.25.

On to WSHH, for which the enrichment ratio was ≤ 0.25.

Consider QPIR, for which the enrichment ratio is ≤ 0.25.

On to RESL, for which the enrichment ratio was ≤ 0.25.

In the case of QMHP, the enrichment ratio was ≤ 0.25.

For SYMY, the enrichment ratio is ≤ 0.25.

As for FNAS, the enrichment ratio is ≤ 0.25.

Take WLAW: the enrichment ratio was ≤ 0.25.

In the case of FDWH, the enrichment ratio is ≤ 0.25.

Regarding WNNW, the enrichment ratio was ≤ 0.25.

Take YYIN: the enrichment ratio is ≤ 0.25.

As for MVHV, the enrichment ratio was ≤ 0.25.

Turning to SGYY, the enrichment ratio is ≤ 0.25.

On to MCWF, for which the enrichment ratio is 2.83.

Take GPGP: the enrichment ratio is ≤ 0.25.

With DESH, the enrichment ratio is ≤ 0.25.

Regarding SVPR, the enrichment ratio is ≤ 0.25.

Consider DAES, for which the enrichment ratio was ≤ 0.25.

On to DKTM, for which the enrichment ratio is ≤ 0.25.

For KPCK, the enrichment ratio was ≤ 0.25.

In the case of FGKC, the enrichment ratio was ≤ 0.25.

As to CCND, the enrichment ratio is ≤ 0.25.

SQLT: the enrichment ratio amounted to 11.

On to SDCY, for which the enrichment ratio is 0.717.

As to REIC, the enrichment ratio was ≤ 0.25.

In the case of FGPN, the enrichment ratio is ≤ 0.25.

On to ALMN, for which the enrichment ratio was ≤ 0.25.

Regarding MIVM, the enrichment ratio worked out at 2.94.

As for TEMI, the enrichment ratio came to 51.6.

Regarding NWSM, the enrichment ratio was ≤ 0.25.

Turning to TFPN, the enrichment ratio was ≤ 0.25.

In the case of RFCW, the enrichment ratio was ≤ 0.25.

As to MFHY, the enrichment ratio is ≤ 0.25.

As to VPYN, the enrichment ratio is ≤ 0.25.

For SQGQ, the enrichment ratio worked out at 3.68.

For the variant PLMI, the enrichment ratio was ≤ 0.25.

QYPS: the enrichment ratio was ≤ 0.25.

Consider QHLK, for which the enrichment ratio was ≤ 0.25.

For TKRI, the enrichment ratio is ≤ 0.25.

For the variant TPDE, the enrichment ratio is ≤ 0.25.
